# According to paper PMC4336329 (PLoS ONE, 2015):
# The campaign covered roughly 310,000 compounds. About 2,200 (0.71%) showed an effect of 50% or more. Effects have a minus sign here. The list shows a part of the results.
# Target: human ether-à-go-go-related gene (hERG) potassium channel (human, UniProt Q12809)
# Experiment: primary screen, population patch clamp on CHO cells stably expressing hERG
# human ether-à-go-go-related gene (hERG) potassium channel, sequence (Q12809 whole entry, looked up): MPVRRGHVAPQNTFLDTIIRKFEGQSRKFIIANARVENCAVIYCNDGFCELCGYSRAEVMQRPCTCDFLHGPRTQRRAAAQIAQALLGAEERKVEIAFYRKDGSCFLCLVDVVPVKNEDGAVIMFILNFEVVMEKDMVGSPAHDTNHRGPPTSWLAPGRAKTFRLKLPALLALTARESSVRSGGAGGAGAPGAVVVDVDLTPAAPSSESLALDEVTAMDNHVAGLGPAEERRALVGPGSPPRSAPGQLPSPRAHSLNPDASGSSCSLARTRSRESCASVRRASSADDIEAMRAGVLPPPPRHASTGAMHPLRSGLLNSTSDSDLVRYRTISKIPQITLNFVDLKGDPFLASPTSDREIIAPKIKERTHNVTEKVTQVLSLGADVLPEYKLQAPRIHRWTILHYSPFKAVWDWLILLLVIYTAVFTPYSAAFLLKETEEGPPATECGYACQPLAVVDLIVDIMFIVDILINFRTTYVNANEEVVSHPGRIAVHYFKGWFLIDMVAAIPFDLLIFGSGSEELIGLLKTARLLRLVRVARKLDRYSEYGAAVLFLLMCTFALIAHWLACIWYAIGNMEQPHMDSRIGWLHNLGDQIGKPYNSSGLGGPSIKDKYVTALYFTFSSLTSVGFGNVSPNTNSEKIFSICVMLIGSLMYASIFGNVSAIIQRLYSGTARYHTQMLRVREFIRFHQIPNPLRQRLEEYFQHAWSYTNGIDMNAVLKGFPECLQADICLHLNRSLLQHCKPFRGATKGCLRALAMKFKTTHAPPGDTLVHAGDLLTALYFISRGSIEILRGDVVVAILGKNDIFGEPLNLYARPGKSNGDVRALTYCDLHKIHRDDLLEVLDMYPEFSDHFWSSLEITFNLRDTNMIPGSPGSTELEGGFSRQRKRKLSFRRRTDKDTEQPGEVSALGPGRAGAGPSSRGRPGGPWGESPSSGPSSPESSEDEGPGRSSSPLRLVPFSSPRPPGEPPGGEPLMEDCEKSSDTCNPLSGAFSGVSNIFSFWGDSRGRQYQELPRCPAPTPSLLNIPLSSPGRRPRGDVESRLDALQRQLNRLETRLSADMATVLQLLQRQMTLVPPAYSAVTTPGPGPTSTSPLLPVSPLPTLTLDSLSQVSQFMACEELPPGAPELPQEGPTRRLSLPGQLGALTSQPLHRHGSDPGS
row,Structure (SMILES),"hERG current change (%, negative = inhibition) at 1uM [%]"
1,NNC(=O)c1ccc(COc2ccccc2)cc1,4.41
2,COc1ccccc1C(=O)C1CCCN(Cc2cn[nH]c2C2CCCCC2)C1 (stereo not drawn),-6.1
3,COC(=O)Cc1[nH]n(-c2ccccc2)c(=O)c1C=Nc1ccc(C)cc1,-7.21
4,COc1ccc(Cc2c([O-])[nH]c(=O)[nH]c2=O)c(OC)c1.[NH4+],8.48
5,COc1ccc(C(=O)N[C@H](C(=O)OCc2nc3ccsc3c(=O)[nH]2)C(C)C)cc1,-1.98
6,O=C(COc1ccc(S(=O)(=O)N2CCOCC2)cc1)Nc1cccc([N+](=O)[O-])c1,9.62
7,COC(=O)c1ccc(OC(=O)c2ccccn2)cc1,8.57
8,COc1ccc(C(=O)NC(=S)Nc2ccccc2[N+](=O)[O-])cc1OC,13.3
9,COC(=O)/C=c1/s/c(=C(/C#N)C(=O)N2CCCCC2)n(-c2ccccc2)c1=O,9.76
10,O=C1CSC(c2cccnc2)N1c1ccc(Cl)cc1 (stereo not drawn),8.11
11,O=C(c1sc2ccccc2c1Cl)N1CCN(c2ccc(F)cc2)CC1,8.08
12,Cn1c(SCc2ccccc2Br)nc2ccccc2c1=O,12.1
13,OCC[C@H]1C[C@@H](O)[C@H](O)[C@]2(CCCO2)O1,3.64
14,O=C(Cc1csc(Nc2nc(=S)[nH]c3ccccc23)n1)N1CCN(c2cccc(C(F)(F)F)c2)CC1,-3.22
15,COCCN(CC(=O)NCc1ccccc1)C(=O)CCC(=O)Nc1nccs1,13.6
16,O=C1CN(C(=O)C2CC2)c2ccccc2N1,-7.98
17,O=C(CSc1ccc(-c2ccccn2)nn1)c1ccccc1,10.6
18,COc1ccc(/C=C/C(=O)OCC(=O)Nc2ccc(N3CCOCC3)cc2)cc1,32.9
19,O=C(NC1CCCCC1)c1cc(-c2ccccn2)nc2ccccc12,21.6

row,Structure (SMILES),"hERG current change (%, negative = inhibition) at 1uM [%]"
1,O=S(=O)(NCC1CCCO1)c1cc(Cl)ccc1Cl (stereo not drawn),12.8
2,Cc1ccccc1NC(=O)NCc1cccnc1,9.99
3,O=c1oc2ccc(Cl)cc2nc1/C=C(\O)c1cccs1,6.68
4,Cl.OCCNCc1cc(Br)ccc1OCc1ccc(Cl)cc1,-11.7
5,O=C(NC1C(=O)NNC1c1ccc(Cl)cc1)c1ccc(F)cc1 (stereo not drawn),7.07
6,Cc1cc(C(=O)NCc2ccccc2Cl)n(-c2ccccc2)n1,-5.63
7,CCCN1C(=O)c2cc(C(=O)NCCc3cccc(C)c3)ccc2C1O (stereo not drawn),0.502
8,Cl.NS(=O)(=O)c1ccc(CCNCC#Cc2ccccc2)cc1,10.5
9,COc1ccccc1C(=O)N(Cc1nc(-c2ccc(Cl)cc2)no1)C(C)C,9.86
10,Cc1nn(-c2ccccc2)c(Cl)c1C(=O)Nc1c(C)n(C)n(-c2ccccc2)c1=O,11.3
11,O=C1CC(c2ccc(Cl)cc2)n2nc(NS(=O)(=O)c3ccc(F)cc3)nc2N1 (stereo not drawn),14.7
12,CN(C)S(=O)(=O)c1cc(NC(=O)c2cc(=O)c3ccccc3o2)ccc1Cl,8.72
13,O=C1c2ccccc2NC(c2ccc(-c3ccc(F)cc3)o2)N1O (stereo not drawn),-3.08
14,C[C@H](NC(=O)c1nc[nH]c1C(=O)N[C@@H](C)C(=O)OC(C)(C)C)C(=O)OC(C)(C)C,15.1
15,COc1ccc(NC(=O)C2=CN3CCS(=O)(=O)N=C3C=C2)c(OC)c1,10.9
16,CCOc1c(O)ccc(C2NC(=O)N(C)C(C)=C2C(=O)OC)c1[N+](=O)[O-] (stereo not drawn),-1.47
17,CCCCN(C(=O)Nc1ccc(Cl)cc1)C1CCN(C(C)=O)CC1,-19.1
18,CSc1cccc(NC(=O)/C=C/c2ccccc2)c1,7.15
19,Nc1nc(Cl)nc2ncn(Cc3ccccc3)c12,19

row,Structure (SMILES),"hERG current change (%, negative = inhibition) at 1uM [%]"
1,NC(=O)OCCCc1ccccc1,10.5
2,Cc1ccc(/C=N\NC(=O)CNC(=O)C23CC4CC(CC(C4)C2)C3)o1,7.18
3,O=C(COC(=O)CCc1nc2ccccc2s1)Nc1ccc(Cl)cn1,11
4,CN(C(=O)c1ccc(F)cc1)c1ccccc1C(=O)NCc1ccccc1,12
5,CCOc1ccc(S(=O)(=O)Nc2cccc(C(=O)NCC3(N4CCCCC4)CCCCC3)c2)cc1,-30.5
6,O=C(/C=C/c1ccc(-c2ccccc2[N+](=O)[O-])o1)c1ccc(Br)cc1,-5.23
7,Cc1ccn2c(Nc3ccc4c(c3)OCO4)c(-c3ccc(O)cc3)nc2c1,0.891
8,O=C(NCc1ccc(Cl)cc1)c1ccc(OCC2CCCO2)cc1 (stereo not drawn),11.7
9,CCOC(=O)Cc1c[nH]c(=S)[nH]c1=O,14.3
10,CC(=O)Nc1ccc(Sc2ncccc2C(=O)Nc2ccc(OC(F)(F)F)cc2)cn1,-3.71
11,O=C(NCc1ccco1)c1ccc(S(=O)(=O)N2CCCCC2)cc1,10
12,COc1cccc(CN2C(=NC(=O)C3CC3)SC3CS(=O)(=O)CC32)c1 (stereo not drawn),14.8
13,CCc1ccccc1NC(=O)Nn1cnnc1,8.05
14,Cc1cc(-n2c(C)cc(C(=O)CSc3nc(N)cc(=O)[nH]3)c2C)no1,9.5
15,COc1ccc(C(CC(=O)N2CCCC2)c2c(OC)cc(OC)c3c(-c4ccccc4)cc(=O)oc23)cc1 (stereo not drawn),18.8
16,CN(Cc1ccon1)Cc1cn(Cc2ccccc2)nc1-c1ccc2c(c1)OCO2,-2.81
17,Cc1nn(-c2ccccc2)c2c1/C(=N/O)CC(C)(C)C2,-15
18,C/C(=N\NC(=O)C1CC1)c1ccc(OC(F)F)cc1,5.86
19,Cc1cc(CN(C)C)c(OC(=O)N(C)C)cc1C.Cl,13.8
